Measurements: PubChem BioAssay AID1963576 (National Center for Advancing Translational Sciences (NCATS), 2024)
Hit rate of the full screen: of about 46,000 compounds, about 60 (0.1%) were called active. Another 3% or so got no clear call; they are omitted. Calls come from the whole dose curve; as a rule, active = well fitted inhibition curve with a large enough effect; inconclusive = small, poorly fitted or top-dose-only effect; inactive = no such curve, though single readings can be large or run the other way. The list shows a part of the results.

test: Primary qHTS assay for Inhibitors of ovarian cancer metastasis using an organotypic tumor microenvironment (TME) model.; note: nearly all actives have a fitted effect of over 65% in size;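 for activity change, negative = inhibition: plate controls were DMSO wells for no effect and tomatine positive control wells for full effect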; conditions: SKOV3ip1-GFP adhesion/invasion on 3D omental model, fluorescence; series mostly up to 45.8 µM; activity change, negative = inhibition: at the top concentration
How it was run: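 qHTS, 4-pt dose (0.36-46 umol/L); SKOV3ip1-GFP, 1,200 cells/well, no FBS; primary omental fibroblast/mesothelial co-culture 48 h pre-grown; 2 h RT + 16 h 37 C; PBS wash, 4% PFA; GFP count 488/509 nm.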

Activity change, negative = inhibition, inactive:
COC(=O)c1ccc2c(=O)n(CCCCCC(=O)NCCc3ccc(Cl)cc3)c(=O)[nH]c2c1 6.64%
Cc1oc(-c2ccc(C(=O)NCc3cccc(F)c3)cc2)nc1COc1ccccc1 -4.47%
CCc1nc2ccc(C(=O)NCc3cc(OC)ccc3OC)cc2nc1CC 10.7%
CCOc1ccc(N2CC(c3nc4ccccc4n3CCOc3ccccc3OC)CC2=O)cc1 (stereo unspecified) -9.37%
O=C1CC(c2nc(-c3ccccc3)no2)CN1c1ccccc1 (stereo unspecified) 0.478%
COc1cccc2c1cc1c(=O)n(CC(=O)N3CCN(c4ccccc4)CC3)nc(C)n12 11.9%
Cc1cccc(NS(=O)(=O)c2ccc3c(c2)CC(C)N3C(=O)C2CCC2)c1C (stereo unspecified) 2.82%
Cc1ccc(-c2nc3ncccn3c2Nc2ccc3c(c2)OCCO3)cc1 46.5%
Cc1ccc(Cn2c(C)c3cnn(CC(=O)NCc4ccccc4)c(=O)c3c2C)cc1 -20.7%
CCN(CC)c1ccc(NC(=O)c2cnn(-c3ccccc3)c2-n2cccc2)c(C)c1 -0.328%
COc1ccc(Cn2c(=O)n(Cc3ccco3)c(=O)c3oc4ccccc4c32)cc1 -0.25%
Cc1cccc2sc(N(CCN(C)C)C(=O)c3ccc4c(c3)OCCO4)nc12 -3.65%
CCOc1ccc(CCNC(=O)CS(=O)(=O)Cc2nc(-c3ccc(OC)cc3)oc2C)cc1 8.34%
Cc1nc2cc(-c3ccccc3)nn2c(C)c1CCC(=O)Nc1ccc(F)cc1F 2.46%
COc1ccc(-c2nc(CS(=O)(=O)CC(=O)NCc3ccccc3Br)c(C)o2)cc1 -24.8%
CCOC(=O)c1c(NC(=O)COc2ccc(Cl)cc2C)sc2c1CCCCC2 -17.1%
Cc1ccc(C)c(Nc2cc(C(=O)NC3CCCC3)c3ccccc3n2)c1 -3.12%
COc1ccc(NC(=O)CC2C(=O)N(c3ccc(OC)cc3)C(=O)N2CCC2=CCCCC2)cc1 (stereo unspecified) -22%
COc1ccc(CCNC(=O)Cc2c(C)c3cc4c(C(C)(C)C)coc4c(C)c3oc2=O)cc1 -4.32%
CN(C)C(=O)[C@H](O)[C@H](Cc1ccccc1)NC(=O)c1cc2cc(Cl)ccc2[nH]1 9.73%
COc1cc(NC(=O)CSc2nc3ncccc3o2)cc(OC)c1 6.12%
CCn1cc2nc(SCC(=O)Nc3cc(OC)cc(OC)c3)n(Cc3ccc(Cl)cc3)c(=O)c2n1 1.77%
Cc1cc(C)c(Nc2ncnc3c2cnn3C)c(C)c1 3.4%
Cc1ccc(NC(=O)CCc2c(C)nc3c(-c4ccc(F)cc4)c(C)nn3c2C)cc1F -2.77%
Cc1nn(CC(=O)NC2CCC(C)CC2)c(=O)c2c1sc1ccccc12 (stereo unspecified) 8.6%
COc1cc(NC(=O)CN2CCN(c3ccc(F)cc3)CC2)cc(OC)c1 3.08%
COC(=O)N1CCCc2cc(S(=O)(=O)NCc3ccccc3)ccc21 0.437%
CCOc1ccc(NC(=O)c2sc3nc4n(c(=O)c3c2C)CCC4)cc1 7.47%
COc1ccc(C2CC(=O)Nc3c2c(=O)[nH]c2nc4ccccc4n32)cc1 (stereo unspecified) 5.39%
COc1ccc(-c2nn3c(=O)cc(CN4CCN(C(=O)/C=C/c5ccccc5)CC4)nc3s2)cc1 7.01%
CCOc1cc(-c2ccc(OC(=O)c3ccccc3Cl)c(OC)c2)cc(=O)c2c(C)oc(C)c12 -4.96%
Cc1cccc(C)c1NC(=O)c1ccc2c(c1)nnn2C1CCCC1 -24.9%
CC(=O)c1ccc(N2CCN(S(=O)(=O)c3ccc(-c4coc(C)n4)cc3)CC2)cc1 -7.65%
COc1ccccc1N1CCN(C(=O)Cn2c(=O)n3nc(-c4cccc(F)c4)nc3c3ccccc32)CC1 -0.0365%
Cc1ccccc1COC(=O)c1nn(-c2ccccc2)nc1N 14.8%
CCNC(=O)c1ccc(NC(=O)N2CCCCc3ccccc32)cc1 13.1%
CCCCN(CC)CCNC(=O)C1CCN(S(=O)(=O)c2cccc3nsnc23)CC1 25.2%
Cc1cc(C)cc(NC(=O)CSc2nc3c(c(=O)[nH]2)CN(Cc2ccc(F)cc2)CC3)c1 20.1%
O=C(CCn1c(=O)c2cccn2c2cccnc21)N1CCN(c2ccccc2)CC1 -19.3%
Cn1c(=O)oc2cc(S(=O)(=O)CCC(=O)N3CCN(c4ccccc4F)CC3)ccc21 -4.85%
CCN(C(=O)C1CCN(S(=O)(=O)c2cc(Br)cc3c2N(C(C)=O)CC3)CC1)c1cccc(C)c1 4.2%
O=C(CSc1nccn1-c1cccc(Cl)c1)Nc1ccc2c(c1)OCO2 -5.84%
CCC(=O)C1=C(c2ccc(F)cc2)N(C(=O)CC)n2c(nnc2-c2ccc(OC)cc2)S1 1.86%
CC(CCc1ccccc1)NC(=O)Cn1ncc2c3ccccc3n(Cc3ccccc3F)c2c1=O (stereo unspecified) 4.55%
CCc1nn(CC(=O)N2CCN(c3ccc(OC)cc3)CC2)c(=O)c2cc3sccc3n12 -2.9%
CCc1ccc(CSc2nc(-c3ccccc3F)nc3c2Cc2c(CO)cnc(C)c2O3)cc1 15.9%
O=C(CSc1nc(=O)[nH]c2c1CCC2)NCc1ccccc1Cl -8.58%
Cc1nc2ccccc2c(=O)n1-c1ccc(NC(=O)c2ccccc2[N+](=O)[O-])cc1 2.23%
CCN(Cc1ccccc1)C(=O)Cn1c(=O)n(-c2ccccc2)c(=O)c2c1c1cc(C)ccc1n2C 2.45%
CCC(=O)NNc1ncnc2c1cnn2-c1ccc(C)c(Cl)c1 -8.31%
Cc1ccc(-c2cc(C(=O)Oc3ccc(C#N)cc3)no2)cc1 1.86%
Cc1ccc(NC(=O)Cn2c(=O)n(Cc3ccco3)c(=O)c3oc4ccccc4c32)cc1C 5.06%
COc1ccc(OC(=O)c2nc(SCc3ccccc3F)ncc2Cl)cc1 -3.01%
Cc1cccc(CNC(=O)C2CCC(CNS(=O)(=O)c3ccc4c(c3)CCCC(=O)N4)CC2)c1 (stereo unspecified) 0.705%
O=C(Nc1ccc2nc(SCC(=O)N3CCOCC3)sc2c1)c1cccc(Br)c1 12.9%
Cc1cccc(CN2C(=O)c3ccccc3Sc3ccc(C(=O)NC4CCCCC4)cc32)c1 -5.74%
O=C(NCc1c(-n2cccc2)sc2c1CCCC2)Nc1cccc(C(F)(F)F)c1 -9.12%
CCC(C)n1c(SCC(=O)Nc2ccccc2C(=O)OC)nc2ccsc2c1=O (stereo unspecified) -7.84%
Cc1cc(Nc2ccccc2C)c2cccc(C)c2n1 -3.92%
COCCCN1CCC(NC(=O)c2cc(Cl)c(N)c3c2OCC3)CC1 -13.3%
Cc1ccc(Cl)c2sc(NC(=O)c3ccc(S(=O)(=O)N4CCCC4)cc3)nc12 -4.06%
COc1cccc(CNC(=O)c2cccc(N3CCCS3(=O)=O)c2)c1 0.987%
CCOc1ccc(C(=O)N2CC(=O)Nc3ccc(C)cc3C2c2ccc(F)cc2)cc1OCC (stereo unspecified) 5.04%
CCc1ccc(NC(=O)C2CCCN(S(=O)(=O)c3ccc4c(c3)oc(=O)n4C)C2)cc1 (stereo unspecified) -4.92%
Cc1ccc(C(=O)NCC(c2ccc(Cl)cc2)N2CCCCC2)cc1 (stereo unspecified) 6.41%
COCCCNC(=O)CCCn1c(SCC(=O)c2ccc(Br)cc2)nc2c(sc3ccccc32)c1=O -8.32%
CCN(CC)C(=O)c1c(NC(=O)c2ccccc2F)sc2c1CCC(C(C)(C)C)C2 (stereo unspecified) 16.5%
Cc1cc2oc(C(=O)N(Cc3ccc(Cl)cc3)Cc3ccco3)c(C)c2cc1Cl -1.18%
Cc1cc(C)c(NC(=O)c2cc(C)nc3c2c(C)nn3-c2cccc(F)c2)c(C)c1 14.7%
COc1ccccc1C(=O)Nc1cccc(OCc2cc(=O)n3ccccc3n2)c1 12.8%
Cc1ccc(C)c(NC(=O)CSc2nc3ccccc3nc2N2CCOCC2)c1 0.627%
CC(C)(C)OC(=O)N1CCC(c2c(C(=O)N3CCCCC3)cnn2-c2ccc(F)cc2)CC1 -21.2%
COc1cccc(N2CCN(C(=O)c3cccn3-c3nnc(N4CCCCC4)s3)CC2)c1 -0.781%
COc1ccc(-c2cc(C(=O)Nc3ccc4c(c3)OCO4)no2)cc1 -11.2%

outcome, inactive:
CCOC(=O)c1ccc(N2C(=O)c3n[nH]c(-c4ccco4)c3C2c2cccc(OC)c2)cc1 (stereo unspecified)
CCc1ccc(CNc2ccc3c(c2)ncn3C(C)(C)C)cc1
O=C(CCS(=O)(=O)c1ccc(Br)cc1)Nc1ccc(F)cc1F
CC(=O)N1CCc2cc(S(=O)(=O)CCC(=O)Nc3ccc(C)cc3Br)ccc21
Cc1cc(OC(C)C(=O)Nc2cccc(-c3nc4ccccc4o3)c2)cc(C)c1Cl (stereo unspecified)
CCC(C(=O)Nc1ccc(C)c(C)c1)n1c(=O)c(C(F)(F)F)nc2ccccc21 (stereo unspecified)
Cc1ccc(CNC(=O)CCCn2c(=O)c3ccccc3n(CC(=O)Nc3ccc(C)cc3)c2=O)cc1
COc1cccc(NC(=O)Cn2c(=O)n(CCC(=O)NCCc3ccc(Cl)cc3)c(=O)c3ccccc32)c1
Cc1ccc(CNC(=O)CS(=O)(=O)c2cccc3nsnc23)cc1
Cc1ccc(CNC(=O)c2cc3c(=O)n(Cc4ccco4)ccc3nc2C)cc1
COc1cc(-c2noc(-c3ccc(NCC4CCCO4)c([N+](=O)[O-])c3)n2)cc(OC)c1OC (stereo unspecified)
Cc1ccc2oc(-c3ccc(NC(=O)CCC(=O)O)cc3)nc2c1
O=C(/C=C/c1ccccc1Cl)N1CCC(c2nc3ccccc3o2)CC1
CCn1cc(C(=O)Nc2cccc(Cl)c2)c2cc(OC)c(OC)cc2c1=O
COc1ccc(-c2cnc(C)o2)cc1S(=O)(=O)Nc1ccc(NC(C)=O)cc1
CCn1c(SCC(=O)Nc2ccccc2C(=O)OC)nc2ccsc2c1=O
CCc1ccc(-c2nn(-c3ccc(OC)cc3)c3c2cnc2ccc(OC)cc23)cc1
COC(=O)c1ccc(NC(=O)c2cnn(-c3ccc(Cl)cc3)c2C2CCN(C(=O)OC(C)(C)C)CC2)cc1
CCc1nn(CC(=O)NCCc2ccc(Cl)cc2)c(=O)c2cc3c(OC)cccc3n12
CCSc1ccccc1C(=O)N1CCN(c2nc3ccccc3s2)CC1
COc1cccc(NC(=O)c2oc3ccc(S(=O)(=O)N(C)C4CCCCC4)cc3c2C)c1
CCC1CCCCN1CCCNC(=O)c1cn(C)c2ccc(S(=O)(=O)N(C)C3CCCCC3)cc2c1=O (stereo unspecified)
